Laboratory results taken from the supplement of paper PMC11417369.
± gives the standard deviation of the averaged measurements. This is one part of the list.

The sequences below were run on PfAP2-EXP AP2 domain (GST-tagged) (assay: gcPBM binding intensity (ln(normalized median fluorescence intensity)); higher = stronger DNA binding).
Outline: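 GST-tagged P. falciparum DNA-binding domains produced in E. coli were incubated for 1 h on an Agilent 4 × 180k array of primer-extended double-stranded 36-bp intergenic genomic probes with negative controls. Binding intensity is the highest Masliner-normalised natural-log median intensity across replicate spots of either probe orientation, with bound protein detected by Alexa488 anti-GST antibody at 488 nm.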

“ATATATATAGATCGAAGTACAGATAGAATGAAAATA [XGTACX_site2695]” and “TAAAAAAATTTTACAAGTACAAAAAAATGTAATAAA [XGTACX_site4829]” are within error of each other in “gcPBM binding intensity (ln)” value: 9.07 ± 0.45 for the first, 8.68 ± 0.41 for the second.

“ACAAGAGAAAAAAATACACACAAGATAAAAATGTAT [CACACA_site607]” and “TAATAATAATTAAATTGTACATATAATATAATATAA [XGTACX_site8554]” are within error of each other in “gcPBM binding intensity (ln)” value: 8.76 ± 0.5 for the first, 8.34 ± 0.38 for the second.

“AATAAAGTAATAACTACACACATTTATAAAAAAGTA [CACACA_site3753]” and “ATATTATCATATTCGAGTACACGAAGTATTATTGCA [XGTACX_site6765]” are within error of each other in “gcPBM binding intensity (ln)” value: 8.51 ± 0.44 for the first, 8.66 ± 0.39 for the second.

“TCTTATAAACATGTATATATTAAAAAAAAAAAAAAA [TGCATGCA_negctrl_site86]” and “TATAAGCTTTCAATGTGTACATATTATTTTATTATT [XGTACX_site3988]” are within error of each other in “gcPBM binding intensity (ln)” value: 8.1 ± 0.44 for the first, 8.74 ± 0.4 for the second.

AACATATTGGATTTAGTGCACATATATATCATAATA and “AAAAATTACCCTTGTGTACACATATATTATCTGTAT [CACACA_site4513]” are within error of each other in “gcPBM binding intensity (ln)” value: 8.88 ± 0.092 for the first, 8.8 ± 0.29 for the second.

Compared with “TAAAAATTACTATATGAACACACATGATTAGATATA [CACACA_site9012]”, “AGGTGATTAATATATACACACATACATATATATATA [CACACA_site8913]” is higher in “gcPBM binding intensity (ln)” value: 8.43 ± 0.49 for the first, 9.77 ± 0.44 for the second.

“GTTTTATATTATATATGTACATATCCATGAGATATA [XGTACX_site3328]” and “AAATAAAAATAAAATAAAATAAAATTAAATGGGAAT [GTGCAC_negctrl_site349]” are within error of each other in “gcPBM binding intensity (ln)” value: 9.05 ± 0.5 for the first, 8.72 ± 0.39 for the second.

“TTTAACTTTTATATAACACACATATTGTAATTATGT [CACACA_site6486]” and “ATGACAATTCAAAATTGTACATAAAAAAAAAAAAAA [XGTACX_site7560]” are the same in “gcPBM binding intensity (ln)” value: 8.49 ± 0.33 for the first, 8.49 ± 0.33 for the second.

“TGTAAACATAAGATATGTACTTATATCATATTATAA [XGTACX_site6883]” and “AATAATTTGGTCTTATCAAAAATTAAAAATAAATAA [XGTACX_negctrl_site430]” are within error of each other in “gcPBM binding intensity (ln)” value: 8.22 ± 0.35 for the first, 8.19 ± 0.36 for the second.

AAAAAACATTTTCGAGTGCATGTTTTGCTTTATTTC and “TTAAATGTTAAAAGGGTGCTATTATATAAATGAAAA [GTGCAC_site9882]” are within error of each other in “gcPBM binding intensity (ln)” value: 8.68 ± 0.32 for the first, 8.7 ± 0.26 for the second.

Going from “TTCATATGTTTTAACACACACGCATATATTATATAT [CACACA_site2007]” to “AAAAAAATTTGGCATACACACACACCCCCACCCACA [CACACA_site8094]”, the “gcPBM binding intensity (ln)” value rises from 8.99 ± 0.4 to 9.84 ± 0.13.

First: ACCATATGTACATTTTTTTTTTTTTTTTTTTTTTTT [CACACA_negctrl_site1188]
Second: ATATATATATAATGTAGTACTATTTAATAATAAGCC [XGTACX_site1263]
The “gcPBM binding intensity (ln)” value of the first is lower: 9.05 ± 0.16 for the first, 9.775 ± 0.078 for the second.

“CACACCCACAGACACACACACACATATATAATATAT [CACACA_site594]” and “AAAAAAAAAAAAAAAGCACACACCAATGAGCAGCTT [CACACA_site1845]” are within error of each other in “gcPBM binding intensity (ln)” value: 8.91 ± 0.59 for the first, 8.66 ± 0.092 for the second.

“TAATATATGTATTATGCATGTGAATAAGCACTTGAT [TGCATGCA_site848]” and “ATATGTTACAAAGATTGTACTTATTAAGGAGCGACT [XGTACX_site5094]” are within error of each other in “gcPBM binding intensity (ln)” value: 8.87 ± 0.19 for the first, 8.7 ± 0.33 for the second.

First: TATAATCATATACACGCATGTATAAAATTTAATACT [TGCATGCA_site700]
Second: ACATTCAAGCGTAATTGTACATACATATATATATAT [XGTACX_site8876]
The “gcPBM binding intensity (ln)” value of the first is lower: 8.5 ± 0.33 for the first, 10 ± 0.36 for the second.

Compared with “ATGTATATAAATAGTAGTACATTATTTCACACTGTA [XGTACX_site2061]”, “TATTGTATCCTTAATGCATGCACCAAATAAAAAAAG [TGCATGCA_site541]” is higher in “gcPBM binding intensity (ln)” value: 8.63 ± 0.63 for the first, 10.21 ± 0.064 for the second.

“AATGGAGTTTATAAGTATAAACGAGGGATACCTAAA [XGTACX_negctrl_site483]” and “AATATAAATAATAGTAGTACATATATATCTCAGAAA [XGTACX_site4055]” are within error of each other in “gcPBM binding intensity (ln)” value: 8.87 ± 0.42 for the first, 8.52 ± 0.33 for the second.

“TTATGTTGTAAATGCACACATACATATACGCAGTTT [CACACA_site3015]” and “TAAATAAATTTATACACACACACACCCATATATATA [CACACA_site849]” are within error of each other in “gcPBM binding intensity (ln)” value: 8.46 ± 0.25 for the first, 8.88 ± 0.35 for the second.

“AAAAAATCAAAACACACACACACACTAGAAAAAAAA [CACACA_site4909]” and “ATTTTATCAAGAGGAAGTACATTACCCCATGAAAAA [XGTACX_site8295]” are within error of each other in “gcPBM binding intensity (ln)” value: 8.64 ± 0.56 for the first, 8.71 ± 0.45 for the second.

“TATATTATATTTTTATGTACATATATGTTTTTTTTT [XGTACX_site8239]” and “AATAAAAATATATCCACACACATATATATATCTGTA [CACACA_site4481]” are within error of each other in “gcPBM binding intensity (ln)” value: 8.52 ± 0.092 for the first, 8.29 ± 0.3 for the second.

First: TATATATATATATGATGTACATGAAAATTTCCAAAA [XGTACX_site5472]
Second: ATATCTGAAGTGTAAAGTACATATATATATTCATAT [XGTACX_site4612]
The “gcPBM binding intensity (ln)” value of the first is higher: 10.1 ± 0.22 for the first, 8.53 ± 0.53 for the second.

“TATATTTTTTAATTCACACAAAAATGAAAAATATTT [CACACA_site6001]” and “CAATTTTACTCATAAACACACATATAGATGTTATTA [CACACA_site7474]” are the same in “gcPBM binding intensity (ln)” value: 8.29 ± 0.38 for the first, 8.29 ± 0.32 for the second.

“TATATATATTATAATACATGCGGTGATGAAAGTTAT [TGCATGCA_site924]” and “TATAAATATAGACACACACACACCAAAGCGTAGCGC [CACACA_site6179]” are within error of each other in “gcPBM binding intensity (ln)” value: 9.05 ± 0.34 for the first, 8.85 ± 0.33 for the second.

“GATTTGTCTTACAGTGGTACACTTATATATATGTGA [XGTACX_site2899]” and “AAAAAAAAAAAAAAAACACACAAGGATCATATATAT [CACACA_site3812]” are within error of each other in “gcPBM binding intensity (ln)” value: 8.82 ± 0.43 for the first, 8.71 ± 0.5 for the second.

“AATATTTATTTTATATGTACATAATTTATTTTTAAT [XGTACX_site776]” and “TATAATATATATATATTTATATATATCTTCCTAATC [GTGCAC_negctrl_site682]” are within error of each other in “gcPBM binding intensity (ln)” value: 8.63 ± 0.32 for the first, 8.12 ± 0.42 for the second.

“TTTTTTTATATAGACACAAAAGAAAATTACATATAC [CACACA_negctrl_site235]” and “TATGAAGTACACAATACACACTAATTATATATAAAT [CACACA_site5444]” are within error of each other in “gcPBM binding intensity (ln)” value: 8.65 ± 0.35 for the first, 8.59 ± 0.49 for the second.

Compared with “TTTTTAAAAAAACATACACACAAAAAAAAAAAAAAA [CACACA_site3935]”, “TCAACCAAAACATAAGCATGCAATATATTTTTATAC [TGCATGCA_site560]” is higher in “gcPBM binding intensity (ln)” value: 8.16 ± 0.5 for the first, 9.54 ± 0.16 for the second.

“TTTTATAATTTCTTCTGTACATATATATGAAAATAT [XGTACX_site74]” and “AAAAAAAAATATAACAGTACATAAACATATGAATAT [XGTACX_site7093]” are within error of each other in “gcPBM binding intensity (ln)” value: 8.71 ± 0.47 for the first, 8.56 ± 0.42 for the second.

“TTATATATTTTTATGTGTACTTATATATATATATAT [XGTACX_site6211]” was tested, and the “gcPBM binding intensity (ln)” value was 10 ± 0.13.
